The campaign covered roughly 48,000 compounds. About 450 (0.94%) were called active. Not shown: some 19% with an inconclusive outcome. Calls come from the whole dose curve; as a rule, active = well fitted inhibition curve with a large enough effect; inconclusive = small, poorly fitted or top-dose-only effect; inactive = no such curve, though single readings can be large or run the other way. This is one part of the list.
Assay: Primary qHTS for Identification of Small Molecule Inhibitors of Huntingtin Promoter Activity; note: nearly all actives have a fitted effect of over 50% in size
Conditions: HEK293 HTT promoter firefly luciferase reporter (activity 0% = vehicle and -100% = no light), 24 h; series mostly up to 57.5 µM; activity change, negative = inhibition: at the top concentration
Text: Assay Provider: Russell L. Margolis M.D.
Department Neurology, Johns Hopkins University School of Medicine, Baltimore, MD
Huntington's Disease (HD) is a neurodegenerative disorder caused by a CAG repeat expansion in exon 1 of huntingtin (HTT). While there are currently no disease-modifying treatments for HD, recent efforts have focused on development of nucleotide-based therapeutics to lower HTT expression. As an alternative to siRNA or oligonucleotide methods, we hypothesized that suppression of HTT expression might be accomplished by small molecules that either (1) directly decrease HTT expression by suppressing HTT promoter activity or (2) indirectly decrease HTT expression by increasing the promoter activity of HTT-AS, the gene antisense to HTT that appears to inhibit expression of HTT.
We developed and employed a high throughput screen for modifiers of HTT and HTT-AS promoter activity using luminescent reporter HEK293 cells; of the 52,041 compounds tested, we identified 898 replicable hits. We used a rigorous stepwise approach to assess compound toxicity and the capacity of the compounds to specifically lower huntingtin protein in 5 different cell lines, including HEK293 cells, HD lymphoblastoid cells, mouse primary neurons, HD iPSCs differentiated into cortical-like neurons, and HD hESCs. We found no compounds which were able to lower huntingtin without lowering cell viability in all assays, though the potential efficacy of a few compounds at non-toxic doses could not be excluded.
SEQUENCE No. (1, 2, 3, etc.); […] (e.g., Cells, Incubation, Reagent, etc.); VALUE and DESCRIPTION.
1; Reagent; 4 uL; 2,500 Hek293 luciferase reporter cells per wells
3; Compound; 23 nL; Control inhibitor / compound library
5; Reagent; 2.5 uL; Firefly Luc reagent; Dual-Glo Luciferase Reporter Assay System (Promega)
6; Time; 10 min; room temperature incubation
7; Detection; Luminescence; FLuc
NOTES (numbers refer to sequence above)
1; High-throughput screening, measuring luminescence from a Hek293 luciferase reporter, was performed in 1,536 well white-walled tissue-culture treated plates. 2,500 cells were plated in 4 µL of Opti-MEM per well using a Multidrop Combi Reagent Dispenser (ThermoFisher).
2; Assay plates were cultured for 24 hours.
3; Control inhibitor (PTC124; final concentration of 50 uM) and compound library (at final concentrations of 460 nM - 57.5 uM) were added to the assay plate using the Kalypsis Pintool Robotic System equipped with 1536 pinheads.
4; Cells were then incubated for 24 hours at 37 degrees C prior to luminescence measurements.
5; In all cases, luminescence was measured using the Dual-Glo Luciferase Reporter Assay System (Promega) following the manufacturer's instructions.
6; Room temperature incubation.
7; Luminescence signal was obtained using the PerkinElmer ViewLux plate reader. Results were normalized to vehicle control (0% activity) and zero RLU (-100% activity).
With `COc1cc(OC)cc(N2C(=O)N(Cc3ccc(C(C)(C)C)cc3)c3ccccc3S2(=O)=O)c1` the “activity change, negative = inhibition” value was inactive: -13.4%. In the case of `COc1ccc(S(=O)(=O)N2CCC(C(=O)Nc3ccccc3)CC2)cc1OC`, the “activity change, negative = inhibition” value is reported as inactive: -15.7%. For `CCOC(=O)c1c(C)[nH]c(C)c1S(=O)(=O)NCC(=O)Nc1cccc(C#N)c1`, the “activity change, negative = inhibition” value was inactive: -21.8%. For `COC(=O)c1scc(-c2ccc(C)cc2)c1S(=O)(=O)N1CCN(c2ccccc2)CC1`, the “activity change, negative = inhibition” value was inactive: -17.8%. With `Cc1nc2ccc(S(=O)(=O)CCC(=O)Nc3ccc(Cl)cc3)cc2s1` the “activity change, negative = inhibition” value was inactive: -16.7%. In the case of `CCOc1ccc(NC(=O)c2c(NCc3cccc(OC)c3OC)sc3c2CCC3)cc1`, the “activity change, negative = inhibition” value is reported as inactive: -10.3%. With `Nc1c(C(=O)Nc2ccccc2Cl)c2ccccn2c1C(=O)c1ccccc1` the “activity change, negative = inhibition” value was inactive: -5.38%. For `COc1ccc(OC)c(CNC(=O)c2ccc3c(c2)c(C)c(C)n3Cc2ccc(Cl)cc2)c1`, the “activity change, negative = inhibition” value was inactive: -23.4%. With `O=C1NCN(c2ccccc2)C12CCN(CCCC(c1ccc(F)cc1)c1ccc(F)cc1)CC2` the “activity change, negative = inhibition” value was inactive: -22.8%. In the case of `CCOC(=O)N1CCN(C(=O)CN(c2ccccc2F)S(=O)(=O)c2ccc(C)cc2)CC1`, the “activity change, negative = inhibition” value is reported as inactive: -21.1%. With `Cc1cc(N2CCC(C)CC2)nc2ccc(NC(=O)Cc3c(F)cccc3Cl)cc12` the “activity change, negative = inhibition” value was inactive: -20.3%. For `Cc1ccc(Cn2cc(S(=O)(=O)c3cccc(Cl)c3)c(=O)c3cc(F)c(N4CCCCC4)cc32)cc1`, the “activity change, negative = inhibition” value was inactive: -5.42%. With `Cc1cc(C)cc(NC(=O)CSc2nc(=O)n(CCN3CCOCC3)c3c2CCC3)c1` the “activity change, negative = inhibition” value was inactive: -14.1%. In the case of `COC(=O)c1c(NC(=O)Cc2coc3cc(C)ccc23)sc2c1CCC2`, the “activity change, negative = inhibition” value is reported as inactive: -8.09%. With `Cc1ccc(Cl)cc1NC(=O)CSc1nccn1C` the “activity change, negative = inhibition” value was inactive: 5.2%. In the case of `CCOC(=O)c1noc2nc(C)n(CC(=O)NC(C)CC)c(=O)c12` (configuration not stated), the “activity change, negative = inhibition” value is reported as inactive: -1.72%. In the case of `Nc1ccccc1NC(=O)c1ccc(CNC(=O)OCc2cccnc2)cc1`, the activity change, negative = inhibition is reported as “inactive”. In the case of `O=C(NCc1cccs1)c1ccc2c(c1)N(Cc1cccc(F)c1)C(=O)c1ccccc1S2`, the “activity change, negative = inhibition” value is reported as inactive: 0.96%. In the case of `Cc1oc(-c2cccc(Cl)c2)nc1CS(=O)(=O)CC(=O)NC(C)CCc1ccccc1` (configuration not stated), the “activity change, negative = inhibition” value is reported as inactive: -13.1%. With `O=C(CSc1ccc(-c2cccs2)nn1)Nc1ccccc1C(F)(F)F` the “activity change, negative = inhibition” value was inactive: -15.3%. For `Cc1ccc(NC(=O)C2CCCN(C(=O)c3cnn(-c4ccc(F)cc4)c3-n3cccc3)C2)c(Cl)c1` (configuration not stated), the “activity change, negative = inhibition” value was inactive: -19.6%. With `Cc1ccccc1CNC(=O)C(C)N(c1ccccc1)S(C)(=O)=O` (configuration not stated) the “activity change, negative = inhibition” value was inactive: -10.2%. For `CC1(C)O[C@H]2[C@@H](O1)[C@@H](C(=O)Nc1ccccc1C(F)(F)F)O[C@@H]1OC(C)(C)O[C@@H]12`, the “activity change, negative = inhibition” value was inactive: -32.3%. With `COc1ccc(-n2c(-c3ccco3)nc3c(cnn3-c3ccc(Cl)cc3)c2=O)cc1` the Potency was active: 35.5 µM. With `O=C(CCC1N=C2c3ccccc3N=C(SCc3ccc(F)cc3)N2C1=O)NCCc1ccccc1` (configuration not stated) the “activity change, negative = inhibition” value was inactive: -28.5%. For `COc1ccc(Cl)cc1NC(=O)C(C)Sc1nc2c(c(=O)[nH]1)CCCC2` (configuration not stated), the “activity change, negative = inhibition” value was inactive: -18.9%. With `CCCc1nn2c(=O)cc(COC(=O)c3ccccc3NC(=O)COc3ccccc3)nc2s1` the “activity change, negative = inhibition” value was inactive: -13.1%. For `CCOC(=O)c1cc(S(=O)(=O)Nc2cc(F)ccc2C)[nH]n1`, the “activity change, negative = inhibition” value was inactive: -7.7%. In the case of `COc1ccccc1NC(=O)c1c(NCc2ccc(C)o2)sc2c1CCCCC2`, the “activity change, negative = inhibition” value is reported as inactive: 7.92%. With `O=C(OCc1ccccc1)c1ccc(O)cc1` the “activity change, negative = inhibition” value was inactive: 39.3%. In the case of `CCc1ccc(NC(=O)Cn2c(=O)n(CCC(C)C)c(=O)c3cccnc32)cc1`, the “activity change, negative = inhibition” value is reported as inactive: -3.81%. For `COc1ccc(-c2cc(C(F)(F)F)n3nc(-c4ccccc4)cc3n2)cc1OC`, the “activity change, negative = inhibition” value was inactive: -2.41%. With `CC(=O)Nc1nonc1-c1nnc(SCc2ccccc2F)n1C` the “activity change, negative = inhibition” value was inactive: -3.41%. For `CC(C)(C)C(=O)OCOC(=O)[C@@H]1N2C(=O)[C@@H](NC(=O)[C@H](N)c3ccccc3)[C@H]2SC1(C)C`, the “activity change, negative = inhibition” value was inactive: 2.64%. In the case of `Cc1ccc(/C=C/c2onc(C)c2S(=O)(=O)N2CCC(C(=O)Nc3ccccc3C(F)(F)F)CC2)cc1`, the “activity change, negative = inhibition” value is reported as inactive: -6.24%. In the case of `CC(=O)c1ccc(N2CCN(c3ncnc4c3c(-c3ccccc3)cn4-c3ccc(Cl)cc3)CC2)cc1`, the “activity change, negative = inhibition” value is reported as inactive: -16.9%. With `CCCCSc1nnc2n(-c3ccc(OC)cc3)c(=O)c3c4c(sc3n12)COC(C(C)C)C4` (configuration not stated) the “activity change, negative = inhibition” value was inactive: -23%. With `COc1cccc(CNC(=O)Cn2nc(-c3ccc(Cl)cc3)ccc2=O)c1` the “activity change, negative = inhibition” value was inactive: -1.96%. In the case of `CC(=O)c1ccc(NC(=O)c2cc(C)nc3c2c(C)nn3-c2ccc(C)cc2)cc1`, the “activity change, negative = inhibition” value is reported as inactive: -31.7%. For `COc1ccc(-n2c(=O)c3c(c4cc(OC)ccc4n3C)n(Cc3cccc(C)c3)c2=O)cc1`, the “activity change, negative = inhibition” value was inactive: -4.67%. With `CCC(C(=O)Nc1cccc(-c2nc3cccnc3s2)c1C)c1ccccc1` (configuration not stated) the “activity change, negative = inhibition” value was inactive: -20.2%. With `COc1ccc(-n2cc(C(=O)NCCc3cc(OC)ccc3OC)c3ccccc3c2=O)cc1` the “activity change, negative = inhibition” value was inactive: -18.8%. With `CCOC(=O)c1c(C)[nH]c(C)c1S(=O)(=O)N1CCCC(C(=O)NCc2ccc(N(C)C)cc2)C1` (configuration not stated) the “activity change, negative = inhibition” value was inactive: -8.68%. In the case of `CC(C)CC(=O)Nc1nnc(S(=O)(=O)N(C)Cc2ccc(Cl)cc2)s1`, the “activity change, negative = inhibition” value is reported as inactive: 0.649%. In the case of `CC1=C(C(=O)Nc2ccc(C)cc2C)C(c2cccs2)n2nc(SCc3cccc(C)c3)nc2N1` (configuration not stated), the “activity change, negative = inhibition” value is reported as inactive: -8.09%. For `CNC(=O)CSc1cn(CC(=O)N2CCCCCC2)c2ccccc12`, the “activity change, negative = inhibition” value was inactive: -10.5%. In the case of `COc1ccc(OC)c(NC(=O)CN2C(=O)CC(C)Sc3ccccc32)c1` (configuration not stated), the “activity change, negative = inhibition” value is reported as inactive: -14.2%.
Potency is the fitted concentration of half-maximal effect.
